Target: T1, myostatin (Homo sapiens, UniProt O14793)
T1 construct: To produce mature myostatin, the pooled promyostatin was enzymatically cleaved between the propeptide and mature myostatin C terminal; made in house; host or cells: E. coli K-12 strain 2596 (ATCC # 202174)
T1 sequence (O14793 267-375): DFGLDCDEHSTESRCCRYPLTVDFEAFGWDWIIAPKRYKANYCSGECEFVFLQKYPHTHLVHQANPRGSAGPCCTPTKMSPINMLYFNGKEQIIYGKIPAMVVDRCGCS
Experiment: C2C12 pMARE-luc cell based myostatin activity assay
Conditions: affinity matured peptibodies; a range of values is given
Excerpt: A myostatin-responsive reporter cell line was generated by transfection of C2C12 myoblast cells (ATCC No: CRL-1772) with a pMARE-luc construct. The pMARE-luc construct was made by cloning twelve repeats of the CAGA sequence, representing the myostatin/activin response elements (Dennler et al. EMBO 17: 3091-3100 (1998)) into a pLuc-MCS reporter vector (Stratagene cat #219087) upstream of the TATA box. The myoblast C2C12 cells naturally express myostatin/activin receptors on its cell surface. When myostatin binds the cell receptors, the Smad pathway is activated, and phosphorylated Smad binds to the response element (Macias-Silva et al. Cell 87:1215 (1996)), resulting in the expression of the lucerase gene. Luciferase activity is then measured using a commercial luciferase reporter assay kit (cat #E4550, Promega, Madison, Wis.) according to manufacturer's protocol. A stable line of C2C12 cells that had been transfected with pMARE-luc (C2C12/pMARE clone #44) was used to measure myostatin activity according to the following procedure.
Equal numbers of the reporter cells (C2C12/pMARE clone #44) were plated into 96 well cultures. A first round screening using two dilutions of peptibodies was performed with the myostatin concentration fixed at 4 nM. […] Myostatin activity was measured by determining the luciferase activity in the treated cultures. […]

With “mTN8Con6-3 ([left out - human IgG1 Fc]GGGGGAQWTGWYQCYGGHLWCYDLRRKLE)” the IC50 was 0.0868 µM.
“mTN8Con6-5 ([left out - human IgG1 Fc]GGGGGAQESRWYPCYEGHLWCFDLTETLE)” showed an IC50 of 2.39 µM.

Source: patent publication US20110008375A1, “Uses of Myostatin Antagonists” (AMGEN INC., priority 2005, published 2011)
